Results from PMC4336329 (PLoS ONE, 2015).
Among all 310,000 compounds or so, about 14,000 (4.5%) showed an effect of 50% or more. The effect is printed as a negative number. The list shows a part of the results.

Biological target: human ether-à-go-go-related gene (hERG) potassium channel (human, UniProt Q12809)
Assay: primary screen, population patch clamp on CHO cells stably expressing hERG
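Also: peak tail current of the secondary pulse compared with the same well before compound.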

Sequence of human ether-à-go-go-related gene (hERG) potassium channel (Q12809 whole entry, looked up): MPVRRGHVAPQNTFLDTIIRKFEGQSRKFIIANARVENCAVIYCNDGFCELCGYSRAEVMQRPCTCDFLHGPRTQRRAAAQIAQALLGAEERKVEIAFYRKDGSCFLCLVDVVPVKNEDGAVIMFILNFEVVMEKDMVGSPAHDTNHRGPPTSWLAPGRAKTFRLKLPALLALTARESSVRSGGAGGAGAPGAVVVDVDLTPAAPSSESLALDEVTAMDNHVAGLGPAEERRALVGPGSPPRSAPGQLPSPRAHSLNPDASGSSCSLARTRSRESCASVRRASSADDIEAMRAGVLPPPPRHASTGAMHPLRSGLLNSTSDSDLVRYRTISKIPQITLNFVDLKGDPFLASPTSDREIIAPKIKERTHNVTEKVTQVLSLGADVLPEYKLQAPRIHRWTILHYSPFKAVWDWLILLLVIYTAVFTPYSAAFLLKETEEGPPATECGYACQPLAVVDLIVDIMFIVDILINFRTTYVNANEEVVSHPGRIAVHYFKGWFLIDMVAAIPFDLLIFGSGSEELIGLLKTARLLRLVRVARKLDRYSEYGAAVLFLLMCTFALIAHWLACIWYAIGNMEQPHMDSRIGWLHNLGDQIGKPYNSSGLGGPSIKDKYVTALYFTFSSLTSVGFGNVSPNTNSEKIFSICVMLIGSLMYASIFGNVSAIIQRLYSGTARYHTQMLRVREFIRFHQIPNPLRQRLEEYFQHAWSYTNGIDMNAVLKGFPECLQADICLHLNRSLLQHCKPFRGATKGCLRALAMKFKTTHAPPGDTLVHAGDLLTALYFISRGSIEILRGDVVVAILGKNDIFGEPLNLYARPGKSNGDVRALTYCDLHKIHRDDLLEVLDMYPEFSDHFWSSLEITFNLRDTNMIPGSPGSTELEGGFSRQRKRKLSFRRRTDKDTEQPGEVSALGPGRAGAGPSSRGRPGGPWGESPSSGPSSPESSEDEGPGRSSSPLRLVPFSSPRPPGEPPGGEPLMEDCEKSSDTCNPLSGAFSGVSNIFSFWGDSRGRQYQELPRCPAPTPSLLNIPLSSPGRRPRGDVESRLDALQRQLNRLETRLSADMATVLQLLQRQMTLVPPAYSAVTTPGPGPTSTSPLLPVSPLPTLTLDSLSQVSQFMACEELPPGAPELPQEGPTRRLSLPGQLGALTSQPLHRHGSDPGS

SMILES	hERG current change (%, negative = inhibition) at 10uM [%]
COc1cc(Cl)c(C)cc1NC(=O)CSc1nc2ccccc2o1	18.3
c1ccc(-c2nn[nH]n2)nc1	9.49
Cc1ccc(NC(=O)CCCC2CCCCC2)c(O)c1	16.7
CN(C)CCCNC(=O)c1ccc2[nH]c3ccccc3c2c1	-20.4
COc1cc(C2C3=C(CC(C)(C)CC3=O)OC3=C2C(=O)CC(C)(C)C3)cc([N+](=O)[O-])c1O	-1.62
COc1ccc(OC)c2sc(N3CCN(C(=O)c4ccc5ncsc5c4)CC3)nc12	5.99
COc1ccc(Br)cc1C1SCCN1S(C)(=O)=O (centres unmarked)	1.52
O=C(Nn1cnc2ccccc2c1=O)c1ccccc1Cl	11.6
O=C(COC(=O)CNC(=O)c1ccccc1)NCCNC(=O)COC(=O)CNC(=O)c1ccccc1	-0.31
Cc1occc1C(=O)Nc1cccc2ccccc12	-11.4
COc1ccc(C(=O)OCC(=O)N(C)C2CCS(=O)(=O)C2)cc1S(=O)(=O)N(C)Cc1ccccc1 (centres unmarked)	-15.7
O=C(COC(=O)COc1ccccc1)NCCc1ccccc1	-5.58
CCCc1c(C(=O)N/N=C/C(C)=C/c2ccco2)nnn1-c1nonc1N	1.19
Cc1csc2ncnc(N3CCN(C(=S)Nc4ccc(C(F)(F)F)cc4)CC3)c12	-16.7
CN(C)c1nc(NCc2ccccc2)nc(N/N=C/c2ccc(Cl)cc2Cl)n1	26.5
CCc1ccc(NC(=O)N2CCN(c3ccccc3)CC2)cc1	4.06
Cc1noc(C)c1CSCC(=O)N(C)CC(=O)Nc1ccccc1C(F)(F)F	8.73
CCn1c(C)nc2cc(C(=O)NNS(=O)(=O)c3c(C)c(C)cc(C)c3C)ccc21	-13.2
CC(Oc1ccc([N+](=O)[O-])cc1)C(=O)NCC1CCCO1 (centres unmarked)	-7.02
COC(=O)CSc1nc(NC(C)=O)nc(C)c1Br	9.72
Cc1ccc(/C(=N\S(=O)(=O)c2ccc(Br)cc2)Nc2ccccc2C)cc1	3.64
COc1ccc(NC(=O)COC(=O)c2cccc(S(=O)(=O)N3CCCCC3)c2)c(OC)c1	2.39

SMILES	hERG current change (%, negative = inhibition) at 10uM [%]
CC1(C)CC(NC(=O)COc2ccc3c4c(c(=O)oc3c2)CCCC4)CC(C)(C)N1	-6.73
CCN(C(=O)c1cnc(OC)cc1C(F)(F)F)c1ccc(Cl)cc1	-7.65
Cc1ccc(Cn2c(=O)c3c(nc4n3CCN4Cc3ccco3)n(C)c2=O)cc1	-17.9
COc1cccc(-n2nnc3c(=O)n(CC(=O)Nc4ccccc4C)cnc32)c1	-11.4
CC1=NOC(=O)/C1=C/c1ccc(O)c(Cl)c1	13.8
O=C(O)c1ccc(N=C2NC(=O)C(CO)(CO)S2)cc1	11.3
CC(C)CC(=O)c1c[nH]c(C(=O)N2CCN(Cc3ccccc3)CC2)c1	-33
CCCC(=O)N1CCc2cc(OC)c(OC)cc2C1COc1ccccc1OC (centres unmarked)	7.33
CN(CC1CCCN(CCc2ccc(F)cc2)C1)C(=O)CCC(F)(F)F (centres unmarked)	-63
CCOC(=O)c1ccc(Nc2nnc3nc(C)cc(C)n23)cc1	16.2
CC(Sc1nncn1C)C(=O)Nc1ccccc1-c1ccccc1 (centres unmarked)	8.27
Cn1c(SCC(=O)NC(c2ccccc2)c2ccccc2)nnc1-c1cccs1	-44.8
Cc1nc2c(C(=O)NCCc3ccccc3)c[nH]n2c(=O)c1Cl	4.11
O=C(NC(=S)Nn1cnnc1)c1ccccc1Br	7.91
CSc1ccc(CCNS(=O)(=O)c2csc(C(N)=O)c2)cc1	2.7
O=C(c1ccc(S(=O)(=O)c2ccccc2)cc1)N1CCCCCC1	-9.18
CCc1ccc(C(=O)N2CCN(c3ccc(F)cc3)CC2)s1	-28.9
CCOC(=O)c1c(-c2ccco2)csc1NC(=O)COC(=O)c1cnc(C)cn1	7.82
O=C(O)CC/C(=N\NC(=O)c1ccccc1Br)c1ccccc1	36
COc1ccccc1NC(=O)c1c(C)cc(=O)oc1C	14.7
CC(C)CC(NC(=O)CNC(=O)C1O[C@@H]2OC(C)(C)O[C@@H]2[C@H]2OC(C)(C)O[C@@H]12)C(=O)O (some centres unmarked)	-6.46
[O-][n+]1c2ccc3nonc3c2nn1-c1ccccc1Cl	6.8
